# US11407811B2, “Fusion protein, preparation method therefor and use thereof” (JIANGSU RONGTAI BIOTECH CO., LTD., priority 2017, dated 2022)
# B1: Protein III: mIgG4-Fc linked to antiangiogenesis polypeptide EDSM-Y via a flexible linker; SEQ ID NO: 19 (protein)
# chain: [sequence of human IgG4 Fc with S228P F234A L235A (EU numbers) and a few adjoining residues not given]GGGGSGGGGSGGGGSFQPVLHLVALNSPLSGGMRGIRGADFQCFQQARAVGLAGTFRAGGGGRGD
# B2: Protein I: IgG1-Fc linked to antiangiogenesis polypeptide EDSM-Y via a flexible linker; SEQ ID NO: 15 (protein)
# chain: [sequence of human IgG1 Fc not given]GGGGSGGGGSGGGGSFQPVLHLVALNSPLSGGMRGIRGADFQCFQQARAVGLAGTFRAGGGGRGD
# Assays:
# [1] = tested on: lung cancer cell A549; assay: MTT assay, proliferation of lung cancer cell A549; type: cell-based
# Description: (§1) The MTT assay was used to detect the inhibitory effect of the integrin blocker fusion protein obtained in Example 1 on the proliferation of various tumor cells, including melanoma cell B16F10, gastric cancer cell MGC-803, lung cancer cell A549, liver cancer cell Hep-G2, breast cancer cell MDA-MB-231, colon cancer cell HCT-116, human glioma U87, and cervical cancer cell Hela.
# (§2) The tumor cells were cultured in a 5% CO2 incubator at 37° C. to a density of 90% or more, and collected by trypsinization. The cells were resuspended in the culture liquid and counted under a microscope. The cell concentration was adjusted to 3.0×10^4 cells/mL. The cell suspension was inoculated into a 96-well plate at 100 μL per well and cultured overnight in a 5% CO2 incubator at 37° C. […] After the cells were fully adhered, each dilution was added to a 96-well plate at 100 μL per well, respectively. […] 20 μL of 5 mg/mL MTT was added to each well of a 96-well plate, and incubation was continued for 4 hours. The medium was aspirated and 100 μL of DMSO per well were added to dissolve. The absorbance was measured at 570 nm with a microplate reader with a reference wavelength of 630 nm, and the proliferation inhibition (PI) was calculated. The formula is as follows: […]
# (§3) where Ntest is the OD value of the test group and Ncontrol is the OD value of the blank control group.
# (§4) The test was repeated 5 times independently. The results obtained from the test were calculated as mean±SD, and statistical t-test was performed. P<0.05 was considered as a significant difference, and P<0.01 was considered as an extremely significant difference.
# [2] = tested on: liver cancer cell Hep-G2; assay: MTT assay, proliferation of liver cancer cell Hep-G2; type: cell-based; settings: for inhibitory effect on liver cancer cell Hep-G2: in words
# Description: as §1, §2, §3, §4
# [3] = tested on: IL-1β production by mouse peritoneal macrophages; assay: IL-1β production by mouse peritoneal macrophages (ELISA); type: cell-based; settings: for inhibition of IL-1β production: in words
# Description: (1) IL-1β production: mice were intraperitoneally injected with 1 mL of broth medium containing 6% starch, and three days later, the mouse peritoneal macrophages were aseptically taken, washed twice with a 1640 medium, and the cell concentration was adjusted to 2×10^6 cells/mL, inoculated into a 24-well culture plate at 1 mL/well, incubated for 3 h in a cell incubator, and shaken once every 30 min, so that the cells were allowed to adhere sufficiently. Then, the cells were washed twice with a culture liquid to remove un-adhered cells. […] The supernatant was taken as a sample for testing activity of IL-1β.
# (2) Determination of IL-1β content: the detection was performed by using mouse IL-1β enzyme-linked immunosorbent assay kit from R&D company. According to the instructions of the kit, the procedures were as follows: the reaction well for the test samples and different concentrations of standards were sealed with sealing tapes, respectively, incubation was performed at 37° C. for 90 min; the plate was washed four times; a biotinylated antibody working solution (100 μL/well) was added, the reaction well was sealed with sealing tapes, and incubation was performed at 37° C. for 60 min; the plate was washed four times; an enzyme conjugate working solution (100 μL/well) was added, the reaction well was sealed with sealing tapes, incubation was performed at 37° C. for 30 min; the plate was washed four times; a developer (100 μL/well) was added, incubation was performed at 37° C. for 10 to 20 min, a stop solution (100 μL/well) was added and mixed and the OD450 value was measured.
# [4] = tested on: peritoneal capillary permeability in mice; assay: Peritoneal capillary permeability in mice (HAc, Evans blue); type: in vivo; settings: for inhibition of the increase of peritoneal capillary permeability induced by glacial acetic acid: in words; for Exudation rate (OD590) / PI (%): mice
# Description: The drug was administered once by injection (EDSM needed to be administered twice a day), and the blank model group was given an equal volume of physiological saline and fed normally. On the 5th day, a 5 g/L Evans blue physiological saline solution was injected into the tail vein at […], followed by intraperitoneal injection ([…]) of a HAc solution (6 mL/L) to induce inflammation. After 20 min, the mice were sacrificed by cervical dislocation. 5 mL of physiological saline was intraperitoneally injected, the abdomen was gently rubbed for 2 min, the abdominal cavity was cut, a peritoneal washing solution was collected and centrifuged at 4000 rpm for 10 min, 1 mL of supernatant was taken, and 3 mL of physiological saline was added to obtain 4 mL of dilution. The absorbance OD value of the dilution was measured by an ultraviolet spectrophotometer at a wavelength of 590 nm, and the amount of pigment exudation was expressed by the OD590 nm value, and the peritoneal capillary permeability in mice was examined.
# [5] = tested on: iris neovascularization in rabbits; assay: Iris neovascularization in rabbits; type: in vivo, rabbit; settings: 128 μg, intravitreal injection once every 5 days for 2 weeks
# Description: The argon ion laser at 577 nm was used to occlude the major branch vein of rabbit retina, and a success venous occlusion was confirmed by fundus fluorescein angiography (FFA).
# 9 eyes successful in modeling were randomly divided into […]. They were labeled as a negative control group, and fusion protein I, protein II, protein III, protein IV and protein V treatment groups, respectively, which were respectively given physiological saline, 128 μg of fusion protein I, 128 μg of protein II, 128 μg of protein III, 128 μg of protein IV and 128 μg of protein V via intravitreal injection once every 5 days for 2 weeks. The observation was performed with an optical and electron microscope on the third week.
molecule,measurement,setting,value
B1,A570 nm/A630 nm,[1]; dose 1 μg/mL,0.9105 ± 0.0332
same,PI (%),[1]; dose 1 μg/mL,6.01%
same,A570 nm/A630 nm,[1]; dose 2 μg/mL,0.8560 ± 0.0292
same,PI (%),[1]; dose 2 μg/mL,11.63%
same,A570 nm/A630 nm,[1]; dose 4 μg/mL,0.7769 ± 0.0273
same,PI (%),[1]; dose 4 μg/mL,19.80%
same,A570 nm/A630 nm,[1]; dose 8 μg/mL,0.6949 ± 0.0316
same,PI (%),[1]; dose 8 μg/mL,28.26%
same,A570 nm/A630 nm,[1]; dose 16 μg/mL,0.5897 ± 0.0198
same,PI (%),[1]; dose 16 μg/mL,39.12%
same,PI (%),"[1]; dose 16 μg/mL, listed as protein III",about 40%
same,A570 nm/A630 nm,[1]; dose 32 μg/mL,0.4436 ± 0.0249
same,PI (%),[1]; dose 32 μg/mL,54.21%
same,A570 nm/A630 nm,[1]; dose 64 μg/mL,0.3165 ± 0.0217
same,PI (%),[1]; dose 64 μg/mL,67.33%
same,A570 nm/A630 nm,[1]; dose 128 μg/mL,0.2116 ± 0.0206
same,PI (%),[1]; dose 128 μg/mL,78.16%
same,A570 nm/A630 nm,[1]; dose 256 μg/mL,0.1212 ± 0.0195
same,PI (%),[1]; dose 256 μg/mL,87.49%
same,A570 nm/A630 nm,[2]; dose 1 μg/mL,0.6726 ± 0.0335
same,PI (%),[2]; dose 1 μg/mL,1.78%
same,A570 nm/A630 nm,[2]; dose 2 μg/mL,0.6111 ± 0.0287
same,PI (%),[2]; dose 2 μg/mL,10.76%
same,A570 nm/A630 nm,[2]; dose 4 μg/mL,0.5862 ± 0.0275
same,PI (%),[2]; dose 4 μg/mL,14.40%
same,A570 nm/A630 nm,[2]; dose 8 μg/mL,0.5586 ± 0.0105
same,PI (%),[2]; dose 8 μg/mL,18.43%
same,A570 nm/A630 nm,[2]; dose 16 μg/mL,0.5102 ± 0.0214
same,PI (%),[2]; dose 16 μg/mL,25.50%
same,A570 nm/A630 nm,[2]; dose 32 μg/mL,0.4756 ± 0.0245
same,PI (%),[2]; dose 32 μg/mL,30.55%
same,A570 nm/A630 nm,[2]; dose 64 μg/mL,0.4213 ± 0.0219
same,PI (%),[2]; dose 64 μg/mL,38.48%
same,A570 nm/A630 nm,[2]; dose 128 μg/mL,0.3786 ± 0.0214
same,PI (%),[2]; dose 128 μg/mL,44.71%
same,A570 nm/A630 nm,[2]; dose 256 μg/mL,0.3259 ± 0.0194
same,PI (%),[2]; dose 256 μg/mL,52.41%
same,inhibitory effect on liver cancer cell Hep-G2,[2],a certain inhibitory effect
same,IL-1β,[3]; dose 8 μg/mL,741.77 ± 8.11 pg/mL
same,PI (%),[3]; dose 8 μg/mL,12.40%
same,IL-1β,[3]; dose 32 μg/mL,496.11 ± 15.12 pg/mL
same,PI (%),[3]; dose 32 μg/mL,41.41%
same,IL-1β,[3]; dose 128 μg/mL,302.13 ± 10.12 pg/mL
same,PI (%),[3]; dose 128 μg/mL,64.32%
same,inhibition of IL-1β production,[3],could significantly inhibit IL-1β production
same,inhibition of the increase of peritoneal capillary permeability induced by glacial acetic acid,[4],could significantly inhibit the increase of peritoneal capillary permeability
same,Exudation rate (OD590),[4]; dose 8 mg/kg,0.54 ± 0.04
same,PI (%),[4]; dose 8 mg/kg,21.74%
same,Exudation rate (OD590),[4]; dose 32 mg/kg,0.41 ± 0.07
same,PI (%),[4]; dose 32 mg/kg,40.58%
same,Exudation rate (OD590),[4]; dose 128 mg/kg,0.31 ± 0.03
same,PI (%),[4]; dose 128 mg/kg,55.07%
same,effect on iris neovascularization,[5],could inhibit neovascularization and regress the formed blood vessels
B2,A570 nm/A630 nm,[1]; dose 1 μg/mL,0.9036 ± 0.0441
same,PI (%),[1]; dose 1 μg/mL,6.72%
same,A570 nm/A630 nm,[1]; dose 2 μg/mL,0.8409 ± 0.0378
same,PI (%),[1]; dose 2 μg/mL,13.19%
same,A570 nm/A630 nm,[1]; dose 4 μg/mL,0.7865 ± 0.0417
same,PI (%),[1]; dose 4 μg/mL,18.81%
same,A570 nm/A630 nm,[1]; dose 8 μg/mL,0.6665 ± 0.0373
same,PI (%),[1]; dose 8 μg/mL,31.20%
same,A570 nm/A630 nm,[1]; dose 16 μg/mL,0.5789 ± 0.0267
same,PI (%),[1]; dose 16 μg/mL,40.24%
same,PI (%),"[1]; dose 16 μg/mL, listed as fusion protein I",about 40%
same,A570 nm/A630 nm,[1]; dose 32 μg/mL,0.4687 ± 0.0384
same,PI (%),[1]; dose 32 μg/mL,51.62%
same,A570 nm/A630 nm,[1]; dose 64 μg/mL,0.3323 ± 0.0333
same,PI (%),[1]; dose 64 μg/mL,65.70%
same,A570 nm/A630 nm,[1]; dose 128 μg/mL,0.1745 ± 0.0219
same,PI (%),[1]; dose 128 μg/mL,81.99%
same,A570 nm/A630 nm,[1]; dose 256 μg/mL,0.0896 ± 0.0233
same,PI (%),[1]; dose 256 μg/mL,90.75%
same,A570 nm/A630 nm,[2]; dose 1 μg/mL,0.6669 ± 0.0428
same,PI (%),[2]; dose 1 μg/mL,2.61%
same,A570 nm/A630 nm,[2]; dose 2 μg/mL,0.6009 ± 0.0362
same,PI (%),[2]; dose 2 μg/mL,12.25%
same,A570 nm/A630 nm,[2]; dose 4 μg/mL,0.5879 ± 0.0404
same,PI (%),[2]; dose 4 μg/mL,14.15%
same,A570 nm/A630 nm,[2]; dose 8 μg/mL,0.5555 ± 0.0373
same,PI (%),[2]; dose 8 μg/mL,18.88%
same,A570 nm/A630 nm,[2]; dose 16 μg/mL,0.5220 ± 0.0259
same,PI (%),[2]; dose 16 μg/mL,23.77%
same,A570 nm/A630 nm,[2]; dose 32 μg/mL,0.4862 ± 0.0330
same,PI (%),[2]; dose 32 μg/mL,29.00%
same,A570 nm/A630 nm,[2]; dose 64 μg/mL,0.4397 ± 0.0327
same,PI (%),[2]; dose 64 μg/mL,35.79%
same,A570 nm/A630 nm,[2]; dose 128 μg/mL,0.3836 ± 0.0218
same,PI (%),[2]; dose 128 μg/mL,43.98%
same,A570 nm/A630 nm,[2]; dose 256 μg/mL,0.3223 ± 0.0233
same,PI (%),[2]; dose 256 μg/mL,52.94%
same,inhibitory effect on liver cancer cell Hep-G2,[2],a certain inhibitory effect
same,IL-1β,[3]; dose 8 μg/mL,731.65 ± 9.76 pg/mL
same,PI (%),[3]; dose 8 μg/mL,13.59%
same,IL-1β,[3]; dose 32 μg/mL,470.01 ± 14.36 pg/mL
same,PI (%),[3]; dose 32 μg/mL,44.49%
same,IL-1β,[3]; dose 128 μg/mL,318.44 ± 11.33 pg/mL
same,PI (%),[3]; dose 128 μg/mL,62.39%
same,inhibition of IL-1β production,[3],could significantly inhibit IL-1β production
same,inhibition of the increase of peritoneal capillary permeability induced by glacial acetic acid,[4],could significantly inhibit the increase of peritoneal capillary permeability
same,Exudation rate (OD590),[4]; dose 8 mg/kg,0.51 ± 0.04
same,PI (%),[4]; dose 8 mg/kg,26.09%
same,Exudation rate (OD590),[4]; dose 32 mg/kg,0.47 ± 0.03
same,PI (%),[4]; dose 32 mg/kg,31.88%
same,Exudation rate (OD590),[4]; dose 128 mg/kg,0.28 ± 0.06
same,PI (%),[4]; dose 128 mg/kg,59.42%
same,effect on iris neovascularization,[5],could inhibit neovascularization and regress the formed blood vessels
